Assay results taken from publication PMC10269652.
No constants are given. Whether binding was seen depends on the method and setting. In cells and extracts the contact can be indirect. Some binding calls cover weakened binding; strength is not graded here. Sequences can lack the tags named with a protein.

B1: DacC-Flag (chromosomal DacC with a 3xFlag at its C terminus, strain MG1655 DacC-Flag) (enzyme, UniProt P08506 28-400)
chain: AEQTVEAPSVDARAWILMDYASGKVLAEGNADEKLDPASLTKIMTSYVVGQALKADKIKLTDMVTVGKDAWATGNPALRGSSVMFLKPGDQVSVADLNKGVIIQSGNDACIALADYVAGSQESFIGLMNGYAKKLGLTNTTFQTVHGLDAPGQFSTARDMALLGKALIHDVPEEYAIHKEKEFTFNKIRQPNRNRLLWSSNLNVDGMKTGTTAGAGYNLVASATQGDMRLISVVLGAKTDRIRFNESEKLLTWGFRFFETVTPIKPDATFVTQRVWFGDKSEVNLGAGEAGSVTIPRGQLKNLKASYTLTEPQLTAPLKKGQVVGTIDFQLNGKSIEQRPLIVMENVEEGGFFGRVWDFVMMKFHQWFGSWFS
B2: DacC(ΔC)-Flag (chromosomal DacC without its C-terminal membrane-anchoring domain, strain MG1655 DacC(ΔC)-Flag) (domain or fragment, UniProt P08506 28-378)
chain: AEQTVEAPSVDARAWILMDYASGKVLAEGNADEKLDPASLTKIMTSYVVGQALKADKIKLTDMVTVGKDAWATGNPALRGSSVMFLKPGDQVSVADLNKGVIIQSGNDACIALADYVAGSQESFIGLMNGYAKKLGLTNTTFQTVHGLDAPGQFSTARDMALLGKALIHDVPEEYAIHKEKEFTFNKIRQPNRNRLLWSSNLNVDGMKTGTTAGAGYNLVASATQGDMRLISVVLGAKTDRIRFNESEKLLTWGFRFFETVTPIKPDATFVTQRVWFGDKSEVNLGAGEAGSVTIPRGQLKNLKASYTLTEPQLTAPLKKGQVVGTIDFQLNGKSIEQRPLIVMENVEEGG
B3: DacA-Flag (chromosomal DacA with a 3xFlag, strain MG1655 DacA-Flag) (enzyme, UniProt P0AEB2 30-403)
chain: DDLNIKTMIPGVPQIDAESYILIDYNSGKVLAEQNADVRRDPASLTKMMTSYVIGQAMKAGKFKETDLVTIGNDAWATGNPVFKGSSLMFLKPGMQVPVSQLIRGINLQSGNDACVAMADFAAGSQDAFVGLMNSYVNALGLKNTHFQTVHGLDADGQYSSARDMALIGQALIRDVPNEYSIYKEKEFTFNGIRQLNRNGLLWDNSLNVDGIKTGHTDKAGYNLVASATEGQMRLISAVMGGRTFKGREAESKKLLTWGFRFFETVNPLKVGKEFASEPVWFGDSDRASLGVDKDVYLTIPRGRMKDLKASYVLNSSELHAPLQKNQVVGTINFQLDGKTIEQRPLVVLQEIPEGNFFGKIIDYIKLMFHHWFG

What was measured:
Experiment in all cases: pull-down; C-terminal His-tagged PBP expressed from pBAD (1% arabinose, 30°C, 3 h) in MG1655 strains with chromosomal Flag-tagged DD-CPase; supernatant of disrupted cells on Talon metal affinity resin; binding buffer (50 mM Tris-HCl pH 8.0, 200 mM NaCl) without 1% n-dodecyl-β-D-maltoside; eluate blotted with anti-Flag; nontagged PBPs as control
[1] = molecular target: T1, C-terminal His-tagged PBP2 (E. coli) (UniProt P0AD65)
T1 sequence: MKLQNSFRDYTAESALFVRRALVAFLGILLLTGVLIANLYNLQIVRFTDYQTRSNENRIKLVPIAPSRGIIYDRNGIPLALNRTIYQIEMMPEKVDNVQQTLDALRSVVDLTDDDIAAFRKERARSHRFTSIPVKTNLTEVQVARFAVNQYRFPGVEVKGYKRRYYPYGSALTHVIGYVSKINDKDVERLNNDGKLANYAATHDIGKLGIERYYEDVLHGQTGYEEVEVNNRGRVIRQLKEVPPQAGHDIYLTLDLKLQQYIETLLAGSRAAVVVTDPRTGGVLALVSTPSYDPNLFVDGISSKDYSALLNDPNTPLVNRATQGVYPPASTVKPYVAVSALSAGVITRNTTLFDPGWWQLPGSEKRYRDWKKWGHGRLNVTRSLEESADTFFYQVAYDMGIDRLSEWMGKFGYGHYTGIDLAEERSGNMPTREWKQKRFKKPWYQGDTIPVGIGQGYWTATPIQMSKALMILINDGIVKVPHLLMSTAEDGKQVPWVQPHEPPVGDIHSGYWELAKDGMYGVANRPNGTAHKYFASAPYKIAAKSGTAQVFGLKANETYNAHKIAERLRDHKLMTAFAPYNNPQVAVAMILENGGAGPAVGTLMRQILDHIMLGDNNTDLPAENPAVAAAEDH

[2] = molecular target: T2, C-terminal His-tagged PBP3 (E. coli) (UniProt P0AD68)
T2 sequence: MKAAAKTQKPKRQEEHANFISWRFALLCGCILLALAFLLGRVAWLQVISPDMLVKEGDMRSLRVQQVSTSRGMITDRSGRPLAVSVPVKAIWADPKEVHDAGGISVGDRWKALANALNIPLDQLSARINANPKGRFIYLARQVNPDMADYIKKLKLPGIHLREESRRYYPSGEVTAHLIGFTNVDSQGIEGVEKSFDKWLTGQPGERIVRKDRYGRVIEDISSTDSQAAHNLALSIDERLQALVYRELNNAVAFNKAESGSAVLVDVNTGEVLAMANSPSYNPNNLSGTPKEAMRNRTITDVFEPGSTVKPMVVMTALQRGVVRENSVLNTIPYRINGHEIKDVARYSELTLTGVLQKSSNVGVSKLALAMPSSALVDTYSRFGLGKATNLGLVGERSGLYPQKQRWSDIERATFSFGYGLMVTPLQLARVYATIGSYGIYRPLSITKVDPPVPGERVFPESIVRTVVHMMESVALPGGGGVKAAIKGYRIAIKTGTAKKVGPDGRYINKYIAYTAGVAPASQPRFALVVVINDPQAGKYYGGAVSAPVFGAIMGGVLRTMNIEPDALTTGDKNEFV

[3] = molecular target: T3, C-terminal His-tagged PBP1a (E. coli) (UniProt P02918)
T3 sequence: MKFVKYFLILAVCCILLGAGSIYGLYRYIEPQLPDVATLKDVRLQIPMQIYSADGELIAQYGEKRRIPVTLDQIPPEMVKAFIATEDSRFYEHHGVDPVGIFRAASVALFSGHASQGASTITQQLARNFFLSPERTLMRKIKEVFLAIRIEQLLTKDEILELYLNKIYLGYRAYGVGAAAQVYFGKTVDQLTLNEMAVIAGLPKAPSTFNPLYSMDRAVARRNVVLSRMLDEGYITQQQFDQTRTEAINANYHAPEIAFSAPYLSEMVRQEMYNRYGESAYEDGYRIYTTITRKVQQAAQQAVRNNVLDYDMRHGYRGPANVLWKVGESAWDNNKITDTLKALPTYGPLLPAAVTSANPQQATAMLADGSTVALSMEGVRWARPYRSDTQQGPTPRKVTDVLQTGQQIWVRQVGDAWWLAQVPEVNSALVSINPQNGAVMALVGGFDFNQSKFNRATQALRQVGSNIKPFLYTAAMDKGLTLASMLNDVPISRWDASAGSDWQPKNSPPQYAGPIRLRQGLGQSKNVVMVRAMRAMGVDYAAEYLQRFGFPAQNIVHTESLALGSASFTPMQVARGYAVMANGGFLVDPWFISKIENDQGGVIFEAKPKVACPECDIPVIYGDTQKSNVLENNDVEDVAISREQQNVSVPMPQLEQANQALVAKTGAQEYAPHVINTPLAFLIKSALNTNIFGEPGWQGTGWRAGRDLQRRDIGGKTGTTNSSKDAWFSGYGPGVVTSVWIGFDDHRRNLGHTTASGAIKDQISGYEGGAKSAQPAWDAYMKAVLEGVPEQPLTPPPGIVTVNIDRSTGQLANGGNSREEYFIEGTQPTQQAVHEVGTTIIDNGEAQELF

[4] = molecular target: T4, C-terminal His-tagged PBP1b (E. coli) (UniProt P02919)
T4 sequence: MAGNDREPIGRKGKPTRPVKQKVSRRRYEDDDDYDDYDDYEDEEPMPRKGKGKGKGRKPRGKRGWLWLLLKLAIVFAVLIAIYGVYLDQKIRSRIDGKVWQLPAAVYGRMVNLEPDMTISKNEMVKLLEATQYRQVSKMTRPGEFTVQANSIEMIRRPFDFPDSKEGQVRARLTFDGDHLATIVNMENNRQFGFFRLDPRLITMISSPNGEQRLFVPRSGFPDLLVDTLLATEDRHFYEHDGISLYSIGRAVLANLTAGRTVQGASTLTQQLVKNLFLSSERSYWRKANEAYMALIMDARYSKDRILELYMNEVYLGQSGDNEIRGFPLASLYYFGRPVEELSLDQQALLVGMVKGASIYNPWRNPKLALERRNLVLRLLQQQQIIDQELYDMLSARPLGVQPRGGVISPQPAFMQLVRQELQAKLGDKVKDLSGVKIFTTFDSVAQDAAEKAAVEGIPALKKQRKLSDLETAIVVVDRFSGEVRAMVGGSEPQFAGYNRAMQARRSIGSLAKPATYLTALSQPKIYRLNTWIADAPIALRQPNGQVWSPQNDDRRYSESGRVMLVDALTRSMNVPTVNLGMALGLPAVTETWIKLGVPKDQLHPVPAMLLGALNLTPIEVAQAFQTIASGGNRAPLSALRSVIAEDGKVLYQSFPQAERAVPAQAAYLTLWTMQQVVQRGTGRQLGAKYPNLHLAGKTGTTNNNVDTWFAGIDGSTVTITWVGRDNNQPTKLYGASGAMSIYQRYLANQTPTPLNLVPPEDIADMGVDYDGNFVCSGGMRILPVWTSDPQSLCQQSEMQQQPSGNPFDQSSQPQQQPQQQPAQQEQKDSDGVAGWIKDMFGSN

Row | Binder | binding [1] | binding [2] | binding [3] | binding [4]
1 | B1 | binds | binds | binds | binds
2 | B2 | binds | no binding | no binding | no binding
3 | B3 | binds | binds | binds | binds
